B1: TEV protease; numbered along this chain (parent)
chain: MGESLFKGPRDYNPISSSICHLTNESDGHTTSLYGIGFGPFIITNKHLFRRNNGTLVVQSLHGVFKVKDTTTLQQHLVDGRDMIIIRMPKDFPPFPQKLKFREPQREERICLVTTNFQTKSMSSMVSDTSCTFPSGDGIFWKHWIQTKDGQCGSPLVSTRDGFIVGIHSASNFTNTNNYFTSVPKNFMELLTNQEAQQWVSGWRLNADSVLWGGHKVFMVKPEEPFQPVKEATQL

The list shows a part of the results. The full chains were built here from the parent and the listed change. Inactive controls read about 0.05.

The variants in the test derive from B1. Briefly: raw area under fraction-flipped curve 0-4 h after induction (AUC4h, not background-subtracted), DNA-recorder readout of cleavage of the substrate (dimensionless); higher = more cleavage of the substrate by the protease variant. Particulars: temperature: 34 °C; time window: 0-4 h after rhamnose induction. The protocol: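 In vivo DNA recorder in E. coli TOP10(DE3) ΔrhaA at 34 °C. Each TEVp single-site mutant (parent TEVp 0) is paired with a single-site variant of the 7-mer TEVs (canonical ENLYFQ|S). The substrate sits between flexible linkers in a Bxb1-sfGFP-TEVs-SsrA fusion, so cleavage stabilises Bxb1 and speeds flipping of a recombination array, read by NGS. The value is the raw area under the fraction-flipped curve over 0-4 h after rhamnose induction (AUC4h), with ≥20 reads per time point. It is not background-subtracted; inactive controls average about 0.047.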
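Note: Bxb1 expression induced with 0.2% (w/v) L-rhamnose at OD600 near 0.5, cultures sampled hourly, flipped fraction per protease–substrate barcode pair counted by paired-end Illumina sequencing.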

Consider MGESLFKGPRDYNPISSSICHLTNESDGHTTSLYGIGFGPFIITNKHLFRRRNGTLVVQSLHGVFKVKDTTTLQQHLVDGRDMIIIRMPKDFPPFPQKLKFREPQREERICLVTTNFQTKSMSSMVSDTSCTFPSGDGIFWKHWIQTKDGQCGSPLVSTRDGFIVGIHSASNFTNTNNYFTSVPKNFMELLTNQEAQQWVSGWRLNADSVLWGGHKVFMVKPEEPFQPVKEATQL [N52R], for which the “area with substrate ENLYFQA” value came out at 0.0734, the “area with substrate ENLYFQF” value came to 0.0445, the “area with substrate ENLYFQH” value turned out to be 0.0812 and the “area with substrate ENLYFQI” value was 0.0597. Also, the “area with substrate ENLYFQK” value worked out at 0.0623, the “area with substrate ENLYFQL” value is 0.0476, the “area with substrate ENLYFQM” value stood at 0.0572 and the “area with substrate ENLYFQN” value turned out to be 0.0625. The “area with substrate ENLYFQP” value worked out at 0.0596, the “area with substrate ENLYFQQ” value came to 0.0673, the “area with substrate ENLYFQR” value worked out at 0.0572 and the “area with substrate ENLYFQS” value came to 0.0768. The “area with substrate ENLYFQT” value is 0.0727, the “area with substrate ENLYFQV” value came to 0.0612 and the “area with substrate ENLYFQY” value stood at 0.0559.

As to MGESLFKGPRDYNPISSSICHLTNESDGHTTSLYGIGFGPFIITNKHLFRRNNGTLVVQSLHGVFKVKDTTTLQQHLVDGRWMIIIRMPKDFPPFPQKLKFREPQREERICLVTTNFQTKSMSSMVSDTSCTFPSGDGIFWKHWIQTKDGQCGSPLVSTRDGFIVGIHSASNFTNTNNYFTSVPKNFMELLTNQEAQQWVSGWRLNADSVLWGGHKVFMVKPEEPFQPVKEATQL [D82W], the “area with substrate ENLYFQA” value is 0.0587, the “area with substrate ENLYFQC” value is 0.0574, the “area with substrate ENLYFQG” value came out at 0.0584 and the “area with substrate ENLYFQI” value came to 0.0585. Besides, the “area with substrate ENLYFQK” value was 0.0284, the “area with substrate ENLYFQL” value stood at 0.0534, the “area with substrate ENLYFQM” value is 0.055 and the “area with substrate ENLYFQN” value stood at 0.0369. The “area with substrate ENLYFQR” value came to 0.0807, the “area with substrate ENLYFQS” value came to 0.0548, the “area with substrate ENLYFQT” value came to 0.0508 and the “area with substrate ENLYFQW” value amounted to 0.0463. For the same variant, the “area with substrate ENLYFQY” value came out at 0.0528.

As to MGESLFKGPRDYNPISSSLCHLTNESDGHTTSLYGIGFGPFIITNKHLFRRNNGTLVVQSLHGVFKVKDTTTLQQHLVDGRDMIIIRMPKDFPPFPQKLKFREPQREERICLVTTNFQTKSMSSMVSDTSCTFPSGDGIFWKHWIQTKDGQCGSPLVSTRDGFIVGIHSASNFTNTNNYFTSVPKNFMELLTNQEAQQWVSGWRLNADSVLWGGHKVFMVKPEEPFQPVKEATQL [I19L], the “area with substrate ENLYFQA” value is 0.128, the “area with substrate ENLYFQC” value was 0.14, the “area with substrate ENLYFQD” value was 0.0652 and the “area with substrate ENLYFQF” value amounted to 0.0854. Moreover, the “area with substrate ENLYFQG” value amounted to 0.0906, the “area with substrate ENLYFQI” value turned out to be 0.0594, the “area with substrate ENLYFQK” value was 0.0816 and the “area with substrate ENLYFQL” value turned out to be 0.0556. Moreover, the “area with substrate ENLYFQM” value is 0.115, the “area with substrate ENLYFQN” value turned out to be 0.0919, the “area with substrate ENLYFQP” value turned out to be 0.0647 and the “area with substrate ENLYFQQ” value turned out to be 0.0839. For the same variant, the “area with substrate ENLYFQR” value was 0.0597, the “area with substrate ENLYFQS” value is 0.117, the “area with substrate ENLYFQT” value was found to be 0.0795 and the “area with substrate ENLYFQV” value was 0.0666. Besides, the “area with substrate ENLYFQY” value was found to be 0.0851.

As to MGESLFKGPRDYNPISSSICHLTNESDGHTTSLYGIGFGPFIITNKHLFRRNNGTLVVQSLHGVFKVKDTTTLQQHLVDGRDMIIIRMPKDFPPFPQKLKFREPQREERICLVTTNFQTKSMSSMVSDTSCTFPSGDGIFWKHWIQTKDGQCGSPLVSTRDGFIVGIHSASNFTPTNNYFTSVPKNFMELLTNQEAQQWVSGWRLNADSVLWGGHKVFMVKPEEPFQPVKEATQL [N175P], the “area with substrate ENLYFQA” value came to 0.0792, the “area with substrate ENLYFQC” value amounted to 0.0759, the “area with substrate ENLYFQD” value was determined as 0.0662 and the “area with substrate ENLYFQF” value is 0.0494. The “area with substrate ENLYFQH” value was found to be 0.0457, the “area with substrate ENLYFQI” value was determined as 0.0563, the “area with substrate ENLYFQK” value turned out to be 0.0471 and the “area with substrate ENLYFQL” value stood at 0.0483. In addition, the “area with substrate ENLYFQM” value was 0.0595, the “area with substrate ENLYFQP” value was 0.0521, the “area with substrate ENLYFQS” value was found to be 0.0579 and the “area with substrate ENLYFQV” value worked out at 0.0648. Further, the “area with substrate ENLYFQY” value was 0.0672.

Regarding MGESLFKGPRDYNPISSSICHLTNQSDGHTTSLYGIGFGPFIITNKHLFRRNNGTLVVQSLHGVFKVKDTTTLQQHLVDGRDMIIIRMPKDFPPFPQKLKFREPQREERICLVTTNFQTKSMSSMVSDTSCTFPSGDGIFWKHWIQTKDGQCGSPLVSTRDGFIVGIHSASNFTNTNNYFTSVPKNFMELLTNQEAQQWVSGWRLNADSVLWGGHKVFMVKPEEPFQPVKEATQL [E25Q], the “area with substrate ENLYFQA” value is 0.0988, the “area with substrate ENLYFQC” value worked out at 0.118, the “area with substrate ENLYFQD” value was 0.0724 and the “area with substrate ENLYFQF” value turned out to be 0.0819. Further, the “area with substrate ENLYFQG” value was 0.0998, the “area with substrate ENLYFQH” value worked out at 0.0915, the “area with substrate ENLYFQI” value was 0.0554 and the “area with substrate ENLYFQL” value came out at 0.0567. Besides, the “area with substrate ENLYFQM” value is 0.117, the “area with substrate ENLYFQN” value is 0.0607, the “area with substrate ENLYFQP” value is 0.0752 and the “area with substrate ENLYFQR” value amounted to 0.0682. Besides, the “area with substrate ENLYFQS” value was 0.103, the “area with substrate ENLYFQT” value was 0.0737, the “area with substrate ENLYFQV” value stood at 0.0669 and the “area with substrate ENLYFQY” value was 0.0781.

With MGESLFKGPRDYNPISSSICHLTNESDEHTTSLYGIGFGPFIITNKHLFRRNNGTLVVQSLHGVFKVKDTTTLQQHLVDGRDMIIIRMPKDFPPFPQKLKFREPQREERICLVTTNFQTKSMSSMVSDTSCTFPSGDGIFWKHWIQTKDGQCGSPLVSTRDGFIVGIHSASNFTNTNNYFTSVPKNFMELLTNQEAQQWVSGWRLNADSVLWGGHKVFMVKPEEPFQPVKEATQL [G28E], the “area with substrate ENLYFQA” value amounted to 0.0835, the “area with substrate ENLYFQC” value was 0.12, the “area with substrate ENLYFQG” value stood at 0.103 and the “area with substrate ENLYFQH” value came out at 0.0708. For the same variant, the “area with substrate ENLYFQK” value turned out to be 0.0654, the “area with substrate ENLYFQL” value worked out at 0.0605, the “area with substrate ENLYFQM” value is 0.0958 and the “area with substrate ENLYFQN” value came to 0.0774. Further, the “area with substrate ENLYFQQ” value is 0.0669, the “area with substrate ENLYFQS” value amounted to 0.0936, the “area with substrate ENLYFQT” value was 0.0577 and the “area with substrate ENLYFQV” value was 0.0587. In addition, the “area with substrate ENLYFQW” value is 0.0574 and the “area with substrate ENLYFQY” value is 0.0662.

In the case of MGESLFKGPRDYNPISSSICHLTNESDGHTTSLYGIGFGPFIITNKHLFRRNNGTLVVQSLHGVFKVKDTTTLQQHLVDGRDMIIIRMPKDFPPFPQKLKFREPQREERICLVTTNFQTKSMSEMVSDTSCTFPSGDGIFWKHWIQTKDGQCGSPLVSTRDGFIVGIHSASNFTNTNNYFTSVPKNFMELLTNQEAQQWVSGWRLNADSVLWGGHKVFMVKPEEPFQPVKEATQL [S124E], the “area with substrate ENLYFQA” value amounted to 0.0918, the “area with substrate ENLYFQC” value was 0.111, the “area with substrate ENLYFQD” value amounted to 0.0824 and the “area with substrate ENLYFQG” value amounted to 0.0793. In addition, the “area with substrate ENLYFQI” value amounted to 0.0594, the “area with substrate ENLYFQK” value turned out to be 0.0622, the “area with substrate ENLYFQM” value turned out to be 0.0837 and the “area with substrate ENLYFQN” value turned out to be 0.0735. Further, the “area with substrate ENLYFQR” value was found to be 0.0585, the “area with substrate ENLYFQS” value turned out to be 0.0926 and the “area with substrate ENLYFQW” value turned out to be 0.06.

Consider MGESLFKGPRDYNPISMSICHLTNESDGHTTSLYGIGFGPFIITNKHLFRRNNGTLVVQSLHGVFKVKDTTTLQQHLVDGRDMIIIRMPKDFPPFPQKLKFREPQREERICLVTTNFQTKSMSSMVSDTSCTFPSGDGIFWKHWIQTKDGQCGSPLVSTRDGFIVGIHSASNFTNTNNYFTSVPKNFMELLTNQEAQQWVSGWRLNADSVLWGGHKVFMVKPEEPFQPVKEATQL [S17M], for which the “area with substrate ENLYFQA” value was 0.103, the “area with substrate ENLYFQC” value stood at 0.132, the “area with substrate ENLYFQD” value stood at 0.0757 and the “area with substrate ENLYFQE” value turned out to be 0.0219. The “area with substrate ENLYFQF” value amounted to 0.0771, the “area with substrate ENLYFQG” value amounted to 0.0801, the “area with substrate ENLYFQH” value worked out at 0.0658 and the “area with substrate ENLYFQI” value was 0.055. The “area with substrate ENLYFQK” value was 0.0568, the “area with substrate ENLYFQL” value turned out to be 0.0651, the “area with substrate ENLYFQM” value was determined as 0.101 and the “area with substrate ENLYFQN” value came to 0.0877. Besides, the “area with substrate ENLYFQP” value was 0.0642, the “area with substrate ENLYFQQ” value stood at 0.0686, the “area with substrate ENLYFQR” value came out at 0.0553 and the “area with substrate ENLYFQS” value came to 0.104. The “area with substrate ENLYFQV” value came to 0.0589, the “area with substrate ENLYFQW” value is 0.0681 and the “area with substrate ENLYFQY” value was 0.0745.

Consider MGESLFKGPRDYNPISLSICHLTNESDGHTTSLYGIGFGPFIITNKHLFRRNNGTLVVQSLHGVFKVKDTTTLQQHLVDGRDMIIIRMPKDFPPFPQKLKFREPQREERICLVTTNFQTKSMSSMVSDTSCTFPSGDGIFWKHWIQTKDGQCGSPLVSTRDGFIVGIHSASNFTNTNNYFTSVPKNFMELLTNQEAQQWVSGWRLNADSVLWGGHKVFMVKPEEPFQPVKEATQL [S17L], for which the “area with substrate ENLYFQA” value worked out at 0.0994, the “area with substrate ENLYFQC” value turned out to be 0.119, the “area with substrate ENLYFQG” value amounted to 0.0901 and the “area with substrate ENLYFQH” value came out at 0.0867. Moreover, the “area with substrate ENLYFQK” value amounted to 0.0655, the “area with substrate ENLYFQL” value was found to be 0.0692, the “area with substrate ENLYFQM” value was 0.0851 and the “area with substrate ENLYFQN” value came out at 0.0657. Further, the “area with substrate ENLYFQP” value came to 0.0614, the “area with substrate ENLYFQR” value was found to be 0.0691, the “area with substrate ENLYFQS” value is 0.104 and the “area with substrate ENLYFQT” value was determined as 0.0544. Also, the “area with substrate ENLYFQV” value amounted to 0.0625, the “area with substrate ENLYFQW” value is 0.0517 and the “area with substrate ENLYFQY” value was 0.0753.

The record behind these values is the supplement of paper PMC12217912.
